According to the supplement of paper PMC3334620:
The full ranking holds about 33,000 sequences; the median of “E-score (-0.5 to 0.5)” is about -0.035, and the highest 2% start at about 0.35. Some of the results follow.

Molecular target: T1, Pdr3 (UniProt P33200)
T1 sequence: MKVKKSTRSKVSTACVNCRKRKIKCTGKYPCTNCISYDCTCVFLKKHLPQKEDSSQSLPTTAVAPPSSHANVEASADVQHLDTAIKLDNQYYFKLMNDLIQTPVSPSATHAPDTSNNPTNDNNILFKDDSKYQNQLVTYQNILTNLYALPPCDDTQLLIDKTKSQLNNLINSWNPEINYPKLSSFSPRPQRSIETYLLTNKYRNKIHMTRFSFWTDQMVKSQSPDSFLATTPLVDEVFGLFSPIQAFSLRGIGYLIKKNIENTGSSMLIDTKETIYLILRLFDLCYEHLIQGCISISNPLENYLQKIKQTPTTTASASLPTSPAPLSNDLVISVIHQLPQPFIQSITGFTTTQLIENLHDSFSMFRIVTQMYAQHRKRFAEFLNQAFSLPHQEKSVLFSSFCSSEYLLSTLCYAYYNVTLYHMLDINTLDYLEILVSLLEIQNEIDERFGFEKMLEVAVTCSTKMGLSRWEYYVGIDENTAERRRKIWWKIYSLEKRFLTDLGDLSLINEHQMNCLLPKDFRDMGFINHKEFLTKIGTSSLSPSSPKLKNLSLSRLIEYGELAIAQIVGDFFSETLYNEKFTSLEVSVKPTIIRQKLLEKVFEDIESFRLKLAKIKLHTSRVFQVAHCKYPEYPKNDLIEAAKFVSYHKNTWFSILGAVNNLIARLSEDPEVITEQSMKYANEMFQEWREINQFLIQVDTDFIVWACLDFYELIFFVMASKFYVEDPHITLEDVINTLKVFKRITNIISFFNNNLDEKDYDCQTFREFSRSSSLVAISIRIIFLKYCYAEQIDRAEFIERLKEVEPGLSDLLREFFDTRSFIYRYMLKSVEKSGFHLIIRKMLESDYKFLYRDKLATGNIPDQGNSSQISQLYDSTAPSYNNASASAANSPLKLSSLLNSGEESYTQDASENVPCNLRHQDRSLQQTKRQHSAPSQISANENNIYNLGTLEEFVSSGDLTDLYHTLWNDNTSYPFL
Experiment: PBM E-score (8-mer binding enrichment) (E-score (-0.5 to 0.5)); higher = stronger / more preferred TF binding; most listed sequences are background and not binding sites
Details: protein concentration: 200 nM; construct: GST-full length
Outline: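 For each ungapped eight-base word taken together with its reverse complement, the Universal PBM Analysis Suite assigned an E-score. Binding data came from GST-tagged yeast transcription factors, applied at about 100-200 nM, on universal all-10-mer Agilent arrays made double-stranded by primer extension. Fluorescent anti-GST marked bound protein, and scans were normalised with masliner.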

Sequence	PBM E-score
ATGGAAGA	-0.243
AATCCCAC	-0.0475
GCTCCAGA	-0.175
CCCCAGCC	-0.0625
CGTCGCCC	-0.00563
ATGTGGGC	-0.116
CATTACGC	0.0615
CGATAGGA	-0.0249
ACGGACGG	0.245
CACAGCTA	-0.226
AGCGACAC	-0.133
AACTGTCG	-0.133
AATCCTCC	0.121
ACGGCTGA	-0.0133
CCTTCTTC	-0.161
CGGTGATC	0.0157
TGAACGCA	-0.0241
AATCTTCG	0.00208
AGCCGACA	-0.124
CTATCTCC	0.0105
TAAGGATA	-0.00952
ATTATTCA	0.0491
CCTTTATC	-0.126
CTCCCAGC	0.0151
AGACTACG	-0.134

Sequence	PBM E-score
GAGGCTCA	-0.129
GCATACAC	-0.171
AAATATAG	0.0161
CATTTTGA	-0.235
CGACCCCG	0.241
CGCTTAAA	-0.0534
CGTAACGA	-0.171
CGTTCGCA	-0.185
CCGGGTAG	0.354
ACTGCGGC	0.119
CGCACCCC	0.109
TTAGCCAA	-0.0821
TAACAGAA	-0.064
TAAGTGTA	-0.198
GCTGGGAA	0.137
ATCTCTCA	0.137
GAGAGAAC	-0.0782
ACTGGAAT	-0.033
CGCAGGGC	-0.0209
AATGTTAG	-0.154
GCTCCTGA	0.0725
CACAAGCG	-0.129
CGGTTGCC	0.205
CGGAATAG	0.418
TATCTTCA	-0.0543

Sequence	PBM E-score
CAGTGTAC	-0.0855
TAACAATA	0.0358
AATCAATG	0.125
GGTGCTAA	-0.0417
GTGTGAGA	-0.0859
AATCTACG	0.024
CACAACTA	0.154
ATGGTTGA	0.0836
ACGGCCAC	0.126
CGCGTGGC	0.00171
AATTCAGG	0.143
CTCACAAA	-0.0844
AATGTTCA	-0.052
CAAGAAGG	-0.0899
GTGGACCA	-0.0263
CGGGGGCC	0.142
CACTCTGC	-0.0918
AGACTGAT	-0.197
GGTCGGTA	0.0234
CGTCAAGC	-0.118
GTCCGTGA	0.276
AGGACTAG	-0.143
GATGCACC	-0.0532
GATTGCCC	-0.0857
CGTTTGTC	0.032

Sequence	PBM E-score
CTAACCAC	-0.258
ACTGCTTC	0.013
TATCGGAA	0.419
GTCGCTTA	0.0381
GTGCCCTA	-0.236
AATCCCAG	-0.0498
CTAGCGAC	-0.122
AGTCCATC	0.0496
GAGTACGA	0.00886
GCCATGGA	-0.0113
TCGGCTCA	0.0148
GCAGTATA	0.0934
CGTCGCGA	0.207
ACCTGGCT	-0.183
AACATGAC	-0.0926
ATCGCGGG	0.186
AGTCTGAG	-0.351
AGTTAAGG	-0.234
ACATAGCA	-0.0892
ACTGCTCG	0.0116
CTATTTAA	0.156
TAGGAATA	-0.119
GTCTTTAA	-0.2
CCGTATAG	-0.13
CTACGTGC	-0.18

Sequence	PBM E-score
ATTTTATG	0.0598
CCAGTACG	-0.132
GCAGAAGA	-0.161
AGACATAA	-0.0309
CGGGCCGA	0.208
CCGAATGC	0.234
TCCTAGCA	-0.24
TTCAAGAA	-0.0654
GGTTGTAA	-0.263
AGTCAGGA	-0.142
AGGGAAGC	-0.0866
TCGAGAAA	-0.197
GCGGGGAA	0.226
CTGCCAAG	-0.252
AGAAAAAG	-0.0302
GAAGGCCC	-0.0246
CCTTCCCG	0.208
CGTCTGAA	-0.159
AATTTTAA	-0.0299
GGTTCGCA	-0.0981
CTGGCTTA	-0.249
CTGTACCC	0.0892
GGTAAAGA	-0.0497
AATGAGTA	0.149
GCGGTGCA	-0.177

Sequence	PBM E-score
ATAGCCAA	0.128
ATTAAATG	0.139
AACTGGGT	-0.0669
AAATGCCC	-0.0768
ACCTTCCG	0.394
ACGATTTG	-0.0965
CTATTAGC	0.02
CCAAGTTA	-0.117
TTCCGAAA	0.41
ATTTAATC	0.235
GGAATAAA	0.194
CGGACCTA	0.25
GGGTCCAA	-0.0383
ATCATAAA	-0.0535
TAAGTACA	-0.172
ACACTCCC	0.0199
CATTTTCA	0.148
CAGGAATA	0.0568
GGTCCGTA	0.293
ATCAGCAG	-0.0556
ACAGCGTC	0.11
CACTGGAG	-0.197
AGGAGCCT	-0.221
ACATCCGG	0.378
GCTTGGGA	-0.0396

Sequence	PBM E-score
CGGACGCC	0.283
AATGGCCT	0.179
GGATGGAA	0.167
AGGCCTGG	-0.166
ACACAGCG	0.185
TAGTCCAA	-0.193
CGTTCCAC	0.104
AGTACTGG	-0.222
ACATCGTA	-0.0633
ATTAAAGA	0.0813
ATGTTTGC	-0.0795
TCGTTCCA	-0.253
ACATACGA	-0.107
TCCGTGCA	0.351
GTGATGGA	0.0126
CTTAATTA	-0.0232
CAGACTAC	-0.207
CAACCTTA	-0.259
ATAGACTC	-0.295
CAAGCCAA	-0.0388
GAGTAGCA	0.0643
AGTACAAG	-0.104
